Experimental data reported in article PMC4336329 (PLoS ONE, 2015).
Hit rate of the full screen: of about 310,000 compounds, about 14,000 (4.5%) showed an effect of 50% or more. Effects have a minus sign here. The list shows a part of the results.

Target: human ether-à-go-go-related gene (hERG) potassium channel (human, UniProt Q12809)
Assay: primary screen, population patch clamp on CHO cells stably expressing hERG
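Also: peak tail current of the secondary pulse compared with the same well before compound.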

Chain of human ether-à-go-go-related gene (hERG) potassium channel (Q12809 whole entry, looked up): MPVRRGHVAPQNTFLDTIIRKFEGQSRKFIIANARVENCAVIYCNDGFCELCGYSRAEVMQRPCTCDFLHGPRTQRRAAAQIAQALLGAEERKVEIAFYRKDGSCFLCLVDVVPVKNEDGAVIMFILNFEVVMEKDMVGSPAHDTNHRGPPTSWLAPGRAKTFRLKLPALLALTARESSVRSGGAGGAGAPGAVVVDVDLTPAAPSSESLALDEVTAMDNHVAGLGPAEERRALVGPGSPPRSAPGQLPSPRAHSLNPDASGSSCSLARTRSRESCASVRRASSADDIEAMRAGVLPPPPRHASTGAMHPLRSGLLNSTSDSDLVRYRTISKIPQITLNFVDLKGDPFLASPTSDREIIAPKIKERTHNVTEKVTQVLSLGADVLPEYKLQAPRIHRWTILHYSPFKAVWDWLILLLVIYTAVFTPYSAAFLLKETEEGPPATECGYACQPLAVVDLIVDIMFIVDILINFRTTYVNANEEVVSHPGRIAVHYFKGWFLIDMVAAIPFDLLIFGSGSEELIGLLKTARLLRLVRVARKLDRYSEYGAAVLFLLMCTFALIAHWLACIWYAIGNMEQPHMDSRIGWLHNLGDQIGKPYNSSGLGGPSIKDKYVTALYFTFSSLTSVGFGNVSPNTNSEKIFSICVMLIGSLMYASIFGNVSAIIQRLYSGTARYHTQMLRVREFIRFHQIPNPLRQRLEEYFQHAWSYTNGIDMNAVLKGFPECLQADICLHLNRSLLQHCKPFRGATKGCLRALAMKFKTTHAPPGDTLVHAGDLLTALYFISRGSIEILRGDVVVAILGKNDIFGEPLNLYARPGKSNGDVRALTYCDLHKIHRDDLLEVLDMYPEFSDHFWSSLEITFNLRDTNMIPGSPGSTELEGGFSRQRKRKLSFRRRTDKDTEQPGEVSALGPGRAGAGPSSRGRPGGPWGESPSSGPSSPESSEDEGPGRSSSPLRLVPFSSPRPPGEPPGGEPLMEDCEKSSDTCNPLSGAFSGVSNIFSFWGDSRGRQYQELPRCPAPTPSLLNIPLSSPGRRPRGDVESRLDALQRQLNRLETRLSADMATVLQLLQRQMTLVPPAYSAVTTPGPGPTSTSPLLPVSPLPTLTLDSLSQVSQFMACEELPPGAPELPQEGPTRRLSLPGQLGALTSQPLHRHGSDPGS

SMILES	hERG current change (%, negative = inhibition) at 10uM [%]
COCC(=O)N(Cc1cc2ccccc2[nH]c1=O)c1ccccc1OC	11.6
CS(=O)(=O)Cc1ccc(C(=O)N2CCCC2c2cccs2)cc1 (stereo not shown)	16.9
Cc1cc(C(=O)COC(=O)c2ccco2)c(C)n1Cc1ccco1	4.9
CCCCOC(=O)Nc1ccc(S(=O)(=O)Nc2nc(C)cc(C)n2)cc1	5.13
Nc1ccccc1N1CCOCC1	7.22
COc1ccc(NC(=O)CCNC(=O)c2ccccc2Cl)cc1OC	5.24
NS(=O)(=O)c1ccc(NC(=O)CSc2nnc(-c3cnccn3)n2-c2ccccc2)cc1	10.1
O=C(NCCC1=CCCCC1)c1cccc(S(=O)(=O)N2CCCCC2)c1	-9.93
CCOP(=O)(OCC)C(Nc1cc(Cl)cc(Cl)c1)c1cccc(O)c1 (stereo not shown)	-38.6
Oc1oc(-c2ccc(Br)cc2)nc1C=Nc1ccc(Br)cn1	14.1
CCOc1ccc(NC(=O)CN2C(=O)C3CCCN3C2=O)cc1 (stereo not shown)	5.45
O=[N+]([O-])c1ccc2[nH]c(O)c(N=NC(=S)NCC3CCCO3)c2c1 (stereo not shown)	0.292
Nc1ccc(Sc2cc(Cl)nc(N)n2)cc1	7.8
CC(C)N(C)S(=O)(=O)c1ccc(NC(=O)C2=COCCO2)cc1	-3.34
CN(CC(=O)Nc1ccc(Cl)c(Cl)c1)C(=O)C12CC3CC(CC(C3)C1)C2	8.7
COC(=O)c1sc2ncccc2c1OCc1ccc(Cl)cc1Cl	4.82
CCn1cc(CNC(=O)c2c(-c3c(Cl)cccc3Cl)noc2C)c(C)n1	-1.38
Cc1ccc(NC2CCCN(C(=O)c3cn4cccc(C)c4n3)C2)cc1C (stereo not shown)	-4.07
O=C(NC1CCNCC1)C1CCCCC1	-6.22
Cc1c(NS(=O)(=O)c2ccc3c(c2)NC(=O)CC(=O)N3)cccc1[N+](=O)[O-]	24.3
CC(C)c1ccc(C(C)NCCS(=O)(=O)c2ccc(Br)cc2)cc1 (stereo not shown)	-12.5
C[C@H]1CN=C(N(C)C)N1CCc1ccc(F)cc1	-12.4

SMILES	hERG current change (%, negative = inhibition) at 10uM [%]
COc1ccc(C(=O)CSc2nnc(CNc3ccc(C)cc3C)o2)cc1	11.7
NN(CCO)C(=S)Nc1ccc(Cl)cc1	21.4
COc1ccccc1-c1cc(-c2ccccc2)nc(SCC(=O)O)c1C#N	20.1
O=C(Nc1cc2c(cc1Cl)OCCCO2)c1ccc(F)cc1	4.28
Cc1ccc(/C=C/C(=O)NCc2cccs2)c(C)c1	11.9
Cl.O=C(O)C1CCN(Cc2cccnc2)CC1	28.7
COc1ccccc1N1CCN(C(CNC(=O)C2CCCCC2)c2cccnc2)CC1 (stereo not shown)	-6.45
COc1ccc(C2SCCN2S(=O)(=O)c2ccccc2)cc1OC (stereo not shown)	-2.42
O=C(Nc1cccc(-c2ccc(F)cc2)c1)C1CCCN(Cc2cccnc2)C1 (stereo not shown)	-60.2
O=C(O)c1cc(S(=O)(=O)N2CCCCC2)ccc1N1CCCCC1	9.05
CCC(C(=O)OCC(=O)N(CCOC)c1c(N)n(Cc2ccccc2)c(=O)[nH]c1=O)c1ccccc1 (stereo not shown)	-3.03
O=C(NC(Cc1c[nH]c2ccccc12)c1nnc2n1CCCCC2)c1ccccc1 (stereo not shown)	18.7
Cc1nc(N)nc(N/N=C/c2c(F)cccc2Cl)n1	3.11
CC(C)CN(CC(C)C)S(=O)(=O)N1CCC(C(=O)N2CCc3ccccc3C2)CC1	12.2
Cc1nn(C(C)C(=O)NCCN2CCCC2)c(=O)c2c1sc1ccccc12 (stereo not shown)	1.56
CC1=NN(Cc2cc(C(C)(C)C)c(O)c(C(C)(C)C)c2)C(=O)C1	17.2
O=C(Nc1cccnc1)c1ccc(Cl)c([N+](=O)[O-])c1	0.489
COc1ccc(C(C(=O)NC2CCCC2)N(Cc2ccc(C)cc2)C(=O)c2ccn[nH]2)cc1OC (stereo not shown)	1.16
O=C(CCc1ccccc1)NNC(=O)Nc1cccc(Cl)c1	-36.7
CCCc1nc(SCC(=O)N2CCCCCC2)c2c(=O)n(C)c(=O)n(C)c2n1	-25.5
Cc1ccc(-n2c(SCC(=O)NCC3CCCO3)nc3n[nH]c(C)c3c2=N)cc1Cl (stereo not shown)	1.46
O=C(Cc1ccccc1)NN1C(=O)C2C3C=CC([C@@H]2C1=O)C31CC1 (stereo partly shown)	15.7

SMILES	hERG current change (%, negative = inhibition) at 10uM [%]
Cc1ccc(C)c(C(=O)N(C)CC(=O)Nc2ccccc2C(F)(F)F)c1	6.75
CC(C)NS(=O)(=O)c1ccc(OCC(=O)N2CCN(Cc3ccccc3)CC2)cc1	-9.11
N#CCC(=O)NCCCc1ccccc1	17
CCOC(=O)c1cc(CC)sc1NC(=O)c1cc(OC)c(OC)c(OC)c1	8.5
CC(=O)c1ccc(N2C(=NC(=O)C3CCCCC3)SC3CS(=O)(=O)CC32)cc1 (stereo not shown)	-20.7
CN(C)C=O.CNc1nc2[nH]c(=O)c3c(c2s1)OC(N)=C(C#N)C3c1ccccc1 (stereo not shown)	11.6
COc1ccc(Cl)cc1S(=O)(=O)N1CCN(CC(=O)C(C)(C)C)CC1	7.45
CCOC(=O)C(O)(c1cn(C)c2ccccc12)C(F)(F)F (stereo not shown)	12.3
Cc1ccc(/C(O)=C2/C(=O)C(=O)N(CCN3CCOCC3)C2c2ccccn2)cc1 (stereo not shown)	18.9
CC(=O)c1ccc2c3c(cccc13)C(=O)N(c1c(C)nn(C)c1C)C2=O	12.9
CCOC(=O)c1c(C)[nH]c(C)c1C(=O)COc1ccc(NC(=O)c2ccco2)cc1	2.97
CC(=O)NCCNC(=O)c1ccc(CSc2ccc(Cl)cc2)cc1	-2.38
COc1cc(NS(=O)(=O)c2ccc3c(c2)n(C)c(=O)n3C)cc(OC)c1	7.15
CC(=O)N1CCN(CC(=O)NC(=O)Nc2ccc3c(c2)OCCO3)CC1	3.58
CC(C)(C)c1ccc(C(=O)NCC(=O)OCc2ccc([N+](=O)[O-])cc2)cc1	-7.46
C#CCOCCOCCOCCNc1nc(N2CCN(C(=O)[C@H]([C@@H](C)O)n3cc(CCCC[NH3+])nn3)CC2)nc(N2CCN(C(=O)[C@H](CCCC[NH3+])n3cc(CCCC)nn3)CC2)n1.[Cl-]	14.1
CC(=O)c1cc2c(cc1N/C(=N/S(=O)(=O)c1ccc(C)cc1)c1ccccc1)OCO2	1.67
O=C(Nc1ccc(F)cc1)C(c1ccccc1)N1CCN(CC(=O)N2CCCC2)CC1 (stereo not shown)	-65.3
CCOC(=O)c1ccc(N2CC(O)=C(c3nc4ccccc4c(=O)[nH]3)C2=N)cc1	-5.62
N=c1c2c(ncn1CCN1CCOCC1)Oc1cc(O)ccc1C2c1ccccc1 (stereo not shown)	-42.9
CCCN1CCN(S(=O)(=O)c2ccc3c(c2)CC(C)N3C(=O)C2CC2)CC1 (stereo not shown)	14.8
CCOC(=O)C1=C(C)NC(=O)NC1c1ccco1 (stereo not shown)	9.99

SMILES	hERG current change (%, negative = inhibition) at 10uM [%]
NS(=O)(=O)c1cccc(NC(=O)c2cccs2)c1	18.4
Cc1nc2ccccn2c1C(=O)CSc1ccccc1Cl	-19.5
CCCc1cc(C(=O)Nc2cc(C)nn2-c2ccccc2)no1	-0.636
Cc1oc2ccc(O)cc2c1C(=O)c1ccc(F)cc1	4.15
O=C(COc1ccc(Cl)cc1)NNC(=O)c1ccc2c(=O)n3c(nc2c1)CCC3	-48.7
O=C(Nc1ccc(-n2cnnn2)cc1)C(c1ccccc1)c1ccccc1	8.56
Cc1ccc(-n2nnnc2SCC(=O)N2CCN(C(=O)c3ccco3)CC2)c(C)c1	-76
CCC(C)C(=O)NCCc1ccc(S(N)(=O)=O)cc1 (stereo not shown)	3.41
COC(=O)[C@@H](NC(=O)Nc1cccc(OC)c1)C(C)C	-13.4
O=C(CSCCc1ccccn1)Nc1ccccn1	11.6
Cc1ccc(NC(=O)C2CCN(S(=O)(=O)c3ccc(N4CCCC4=O)cc3)CC2)cc1Cl	-0.121
O=C(O)c1ccc2c(=O)n3c(nc2c1)/C(=C/c1ccc(Cl)cc1Cl)CC3	0.363
CN(C)CCNC(=O)c1ccc(COCC(F)(F)F)cc1	-12.7
CCCCn1cnc2cc(NCc3ccncc3)ccc21	-1.31
CC(=O)c1ccc2noc(-c3ccc(Cl)cc3)c2c1	2.26
CCN1C(=O)N[C@@H](c2ccco2)C(C(=O)OC)=C1C	6.79
Cc1cccc(-n2c(SCC(=O)NCC3CCCO3)nc3ccccc3c2=O)c1C (stereo not shown)	0.08
CC1(C)CC(=O)C(C=NCCN2CCN(C(=O)Cc3ccc(Cl)cc3)CC2)=C(O)C1	-62
CCOC(=O)CC1C(=O)NCCN1C(=O)NC1CCCCC1 (stereo not shown)	4.54
CCOC(=O)C1CCN(C/C=C/c2ccccc2OC)CC1	-20.5
COc1ccc(Cn2c(-c3ccco3)nc3oc4cc(OC)ccc4c(=O)c3c2=O)cc1	-31.4
CCOc1cc(/C=C2/C(=O)NN(c3cccc(Cl)c3)C2=O)ccc1O	11.7
